# Laboratory results reported in the supplement of paper PMC3334620.
# Over roughly 33,000 sequences, “E-score (-0.5 to 0.5)” has its median near -0.036; the highest 2% begin near 0.37. This is one part of the list.
# Target: T1, Yer064c (UniProt P40041)
# T1 sequence: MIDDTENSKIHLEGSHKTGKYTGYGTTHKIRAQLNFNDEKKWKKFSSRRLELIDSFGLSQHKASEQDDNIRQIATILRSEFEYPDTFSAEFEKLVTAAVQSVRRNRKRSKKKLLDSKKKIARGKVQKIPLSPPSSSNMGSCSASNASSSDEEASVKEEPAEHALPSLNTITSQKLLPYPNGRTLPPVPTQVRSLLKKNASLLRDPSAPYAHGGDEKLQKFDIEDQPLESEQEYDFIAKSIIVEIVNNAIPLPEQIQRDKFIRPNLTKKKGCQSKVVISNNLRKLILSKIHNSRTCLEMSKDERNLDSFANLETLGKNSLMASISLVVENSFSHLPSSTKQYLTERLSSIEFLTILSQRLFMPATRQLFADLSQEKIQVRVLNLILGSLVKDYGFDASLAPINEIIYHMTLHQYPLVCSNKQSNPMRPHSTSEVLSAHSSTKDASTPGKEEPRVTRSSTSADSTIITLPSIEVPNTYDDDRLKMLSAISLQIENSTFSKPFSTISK
# Assay: PBM E-score (8-mer binding enrichment) (E-score (-0.5 to 0.5)); higher = stronger / more preferred TF binding; most listed sequences are background and not binding sites
# Details: protein concentration: 200 nM; construct: GST-full length
# Procedure: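 Universal 'all 10-mer' protein binding microarrays (Agilent AMADID 015681) probed with GST-tagged S. cerevisiae TFs (full-length or DBD) made by in vitro transcription/translation (PURExpress), about 100-200 nM. Bound TF was detected with fluorescent anti-GST. Each ungapped 8-mer (which stands for itself and its reverse complement) is scored by the PBM enrichment score (E-score), a modified Wilcoxon-Mann-Whitney statistic from -0.5 to +0.5, computed with the Universal PBM Analysis Suite. Scale: above 0.35 generally sequence-specific binding.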
row,Sequence,PBM E-score
1,ATTGCAAA,0.0468
2,ACCATTCG,0.052
3,CGTAAGTC,0.266
4,ATTTGTTG,-0.0426
5,AATGGAGA,-0.0502
6,AGGCAAAG,-0.157
7,ACTAGTCT,0.345
8,CGGTAGGA,-0.0115
9,GCCGCCGA,-0.114
10,ATTCACGA,0.212
11,GACCCTGC,-0.262
12,AGGGATAA,0.093
13,TACAAGTA,-0.00163
14,GCACCGGC,-0.218
15,AGGGCGTA,-0.0746
16,ATCCTACG,-0.0401
17,CGTGCCGA,-0.237
18,ATAATCCA,0.0423
19,ATAGGGAG,-0.0477
20,CCCACTTC,-0.146
21,ATATCCAG,-0.135
22,ATCTACAT,0.16
23,GGGTACGA,0.028
24,TAAACATA,0.164

row,Sequence,PBM E-score
1,AAACATAA,0.0547
2,CCGGTCGA,-0.237
3,GATGTTCA,-0.0838
4,ACAAGTTG,-0.0935
5,GACGGTCC,-0.324
6,CAACGGGC,-0.0805
7,CCGGAGCG,-0.242
8,AACAAACA,0.00034
9,GCCAACGA,-0.245
10,AAATTTAG,0.167
11,CCTGCGTC,-0.213
12,CTGTTATA,-0.0108
13,AAGCTATT,-0.16
14,ACGACGAG,0.0377
15,GATTGTAA,0.159
16,CAACTTAG,0.0981
17,AAACGGAG,-0.185
18,CCGAAGTC,0.251
19,CTACGCCA,0.0287
20,GCACACCC,-0.0608
21,ACTACGCT,0.125
22,TCAGGGCA,-0.124
23,TGCATCCA,-0.0163
24,TCTGTTAA,0.0454

row,Sequence,PBM E-score
1,AGCACGCA,-0.129
2,ATTAGAAC,0.052
3,ACATGAGA,0.284
4,AAACCCCT,-0.219
5,ACGGGTTG,-0.128
6,GGTAAGCA,-0.159
7,ATGGGCGC,-0.191
8,GTCCCCAC,-0.0661
9,GAGTGGTA,0.0154
10,ATGTCAAT,-0.0622
11,AGCCTGCG,-0.212
12,AATCGAAC,-0.137
13,ATCTTCGG,0.0804
14,GTTACAAC,0.0394
15,AAACTAAT,0.243
16,ATTTGGGA,0.0486
17,ACGTGCCT,-0.11
18,ATCCCATC,-0.167
19,CTTGGGTA,0.0795
20,ATCGGCGG,-0.121
21,GACTAGAA,0.293
22,ACATCAGC,-0.0863
23,CGGACCCC,-0.22
24,CTTCGAAC,0.0403

row,Sequence,PBM E-score
1,TATAGGAA,0.084
2,GACTCACC,0.478
3,GCCACTCA,0.116
4,CAGTTGTC,0.00626
5,GTATCAGA,0.0243
6,GGACTGCA,0.234
7,AGTACCCC,-0.0756
8,AGGATGGA,-0.0937
9,ATCGACAA,-0.00382
10,ATTGCAAT,0.093
11,AGCATGTC,-0.107
12,ACGTTCAA,-0.11
13,GGATAACA,-0.0227
14,ATATTAGG,0.0316
15,GATTCGGC,-0.0687
16,ATCAAAGA,0.193
17,CCCTAGAG,-0.141
18,GCCTATCC,-0.207
19,GTAGCTCA,0.067
20,TAACGACA,-0.0322
21,AAATACAT,-0.115
22,ACAACTGC,-0.0478
